Data published in PubChem BioAssay AID1240 (Sanford-Burnham Center for Chemical Genomics, 2008).
The campaign covered roughly 50,000 compounds. About 800 (1.6%) showed an effect of 50% or more. This is one part of the list.

Each molecule was assayed against Bcl-2-like protein 10 (Homo sapiens) (UniProt Q9HD36) (assay: Phenotype converters, Bcl-B/TR3 peptide binding displacement, primary biochemical FP (AID 1240;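 further: 0% = Bcl-B with tracer peptide and DMSO and 100% = tracer peptide lacking Bcl-B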)). Settings: GST-Bcl-B / FITC-TR3 peptide fluorescence polarization; stronger effect = higher value; compound at 3.75 mg/L.
UniProt Q9HD36, sequence (Q9HD36 whole entry, looked up): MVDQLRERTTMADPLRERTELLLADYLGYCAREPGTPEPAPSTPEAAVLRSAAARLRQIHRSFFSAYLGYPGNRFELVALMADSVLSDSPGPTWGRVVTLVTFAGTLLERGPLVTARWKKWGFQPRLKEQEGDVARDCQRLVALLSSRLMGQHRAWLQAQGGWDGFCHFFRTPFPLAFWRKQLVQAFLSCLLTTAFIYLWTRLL

Compound | displacement [%]
CC1(C)N([O-])C2=C(c3ccccc3C2=O)[N+](=O)C1(C)C | -3.1
COc1ccc(CNC(=S)Nc2ccc(Cl)cc2Cl)cc1 | 10.3
Cc1ccc(S(=O)(=O)c2nc(Nc3ccccc3C)sc2Cl)cc1 | 14.2
COC(=O)C(CC(C(=O)OC)C(=O)OC)C(=O)OC | 9.1
O=C(Cc1ccc(Br)cc1)N1CCN(c2ccccc2)CC1 | 9.8
O=C(NCc1cccnc1)C1c2ccccc2Oc2ccccc21 | -4.6
CC1=NN(C(=O)CCc2ccccc2)C(O)(c2ccc(Cl)cc2)C1 (configuration not stated) | -6.4
O=Cc1cc(-c2ccccc2)oc1Cl | -4.1
Cc1ccc(-c2c(CCC(C)(O)c3ccccc3)oc3ccccc23)o1 (configuration not stated) | -14.8
COc1ccc(Oc2ccc3[nH]c4c(c3c2)CCC/C4=N/O)cc1 | -3.6
Cc1ccc(C(C)C)c(OCc2nnc(NC(=O)Nc3ccccc3)s2)c1 | 8.4
Cc1[nH]c(=O)c(C#N)c2c1COC(C)(C)C2 | 3.9
COc1ccccc1NC(=O)C1CC2c3ccccc3C1c1ccccc12 (configuration not stated) | -6.4
Cc1ccc(NC(=O)COc2ccc(Cl)c(C)c2)c(Br)c1 | -12
CCOC(=O)c1ccc(NCc2cc(Br)ccc2O)cc1 | -3.1
COc1ccc(CNCc2ccc([N+](=O)[O-])cc2)cc1 | -1.4

Compound | displacement [%]
COc1ccc(/C(N)=N/OC(=O)CCc2ccccc2)cc1 | 0
COC(=O)/C=C1/N/C(=N/c2nc3ccccc3s2)NC1=O | 1.8
Cc1cc(C)cc(NCc2ccncc2)c1 | 17.1
Cc1ccc(C(C)C)c(OCC(=O)N/N=C/c2ccc(C(=O)O)cc2)c1 | 9
O=C(/C=C/c1ccccc1)CC(=O)C(F)(F)F | 11
CCOc1ccc(NCC(=O)N/N=C/c2cccc([N+](=O)[O-])c2)cc1 | -1.3
Cc1ccc(-c2nc3cc(Cl)ccc3o2)cc1NC(=O)C(C)C | -16.5
Cc1ccc(S(=O)(=O)N(Cc2ccccc2)c2ccccc2C(=O)Nc2c(C)n(C)n(-c3ccccc3)c2=O)cc1 | 8.2
O=C(NCCOc1ccccc1F)Nc1ccc(Br)cc1 | -0.6
CS(C)=C1C(=O)NC(=O)N(c2ccccc2)C1=O | 12.9
O=[N+]([O-])c1ccccc1S(=O)(=O)Nc1ccc(OCc2ccccc2)cc1 | 11.9
Cc1cc(C)c(NC(=O)Cn2cnc3c2c(=O)n(C)c(=O)n3C)c(C)c1 | -9.1
CCOC(=O)c1c(-c2ccccc2)oc2c([N+](=O)[O-])cc([N+](=O)[O-])cc12 | 11.5
COc1ccc(C(=O)CC2(C(F)(F)F)NCCN2)cc1 | 0.5
CC(=O)c1cccc(NC(=O)C2COc3ccccc3O2)c1 (configuration not stated) | -0.4
N#C/C(=C1\NC2(CCCCC2)Cc2ccccc21)c1ccccc1 | -12.1
